# Several values for one entry are separate records, joined by “and”; a condition that tells them apart may be missing. Equal values may be shown once. This list was built around the results that the source calls inconclusive (neither active nor inactive); the mix of calls is not that of the screen. For part of these data: Potencies of inconclusive entries are doubtful fits and often do not repeat. Some compounds were tested as several samples or in several runs, with calls that do not always agree. Activity calls are given as the source filed them. Unless noted, calls come from the whole dose curve; as a rule, active = well fitted curve in the direction sought with a large enough effect in the repeat runs; inconclusive = weak or mixed curves; inactive = no such curve, though single readings can be large; an effect the other way counts as inactive or inconclusive.
# Tests used:
# [1] = qHTS assay to identify small molecule antagonists of the TGF-beta/Smad signaling pathway (AID 1346924; active = well fitted inhibition curve with a large enough effect in the signal ratio in the repeat runs, not every such curve was filed as active; inconclusive = weak or mixed curves; the % refers to the signal ratio; note: potency is the fitted concentration of half-maximal effect); conditions: SBE-bla HEK293T, TGF-beta/Smad reporter, beta-lactamase ratio; activity, negative = inhibition: at 76.8 µM (top of the series) unless noted
# Outline: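 SBE-bla HEK 293T cells were plated overnight, then received compound in DMSO plus TGF-beta1 (added as a 0.25 ng/mL solution) and were incubated 5 h at 37 C. Beta-lactamase reporter activity was read after 2 h at room temperature with LiveBLAzer B/G FRET substrate (ex 405, em 460/530 nm).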
# [2] = qHTS assay to identify small molecule antagonists of the retinoid acid receptor (RAR) signaling pathway - cell viability counter screen (AID 1159551); note: nearly all actives have a fitted effect of over 35% in size; note: potency is the fitted concentration of half-maximal effect
# Outline: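 C3RL4 RARE-luciferase cells, 1,000/well, incubated overnight, then dosed with compound plus 1 uM retinol (final). After 6 hr at 37 C, viability read by CellTiter-Glo ATP luminescence following 30 min at room temperature.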
# [3] = target: Estrogen receptor (Homo sapiens) (UniProt P03372); assay: qHTS assay to identify small molecule antagonists of the estrogen receptor alpha (ER-alpha) signaling pathway using the BG1 cell line in the presence of 0.1 nM 17-beta-estradiol (AID 1259244); note: nearly all actives have a fitted effect of over 50% in size; note: potency is the fitted concentration of half-maximal effect; for activity change, negative = inhibition: % is set by controls: 0 for no effect and ±100 for the full control effect
# Sequence of UniProt P03372 (P03372 whole entry, looked up): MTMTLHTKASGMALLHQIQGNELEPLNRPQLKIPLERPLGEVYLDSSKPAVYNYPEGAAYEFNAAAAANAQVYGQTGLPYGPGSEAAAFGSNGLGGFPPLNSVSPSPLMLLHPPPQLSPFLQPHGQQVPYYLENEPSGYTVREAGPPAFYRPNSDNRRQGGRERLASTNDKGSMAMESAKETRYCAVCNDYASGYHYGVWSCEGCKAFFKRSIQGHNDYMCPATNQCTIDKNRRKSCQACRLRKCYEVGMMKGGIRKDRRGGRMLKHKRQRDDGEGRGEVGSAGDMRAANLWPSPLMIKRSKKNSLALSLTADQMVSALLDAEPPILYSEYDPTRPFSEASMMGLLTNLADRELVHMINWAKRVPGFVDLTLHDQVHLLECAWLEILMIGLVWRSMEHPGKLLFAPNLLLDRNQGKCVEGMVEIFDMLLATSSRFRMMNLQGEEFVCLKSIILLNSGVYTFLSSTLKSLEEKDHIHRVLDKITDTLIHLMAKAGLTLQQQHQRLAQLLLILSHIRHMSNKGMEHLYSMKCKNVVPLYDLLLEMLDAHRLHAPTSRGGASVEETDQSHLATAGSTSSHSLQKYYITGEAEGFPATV
# Outline: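 VM7Luc4E2 cells (endogenous full-length ER-alpha, 4×ERE-luciferase), kept 5 days in phenol red-free, charcoal-stripped FBS medium; 4,000 cells/well. Compounds added with 0.1 nM (final) 17beta-estradiol, 22 hr at 37C; luminescence read with ONE-Glo after 30 min.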
# [4] = qHTS RealTime-Glo MT Cell Viability Assay in HepG2 cells - 8 hour (AID 1224873); note: % is set by controls: 0 for no effect and ±100 for the full control effect; nearly all actives have a fitted effect of over 55% in size
# Outline: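 HepG2 cells mixed with RealTime-Glo MT reagents (NanoLuc plus cell-permeant prosubstrate) were seeded at 600 cells/well, incubated 5 h at 37 C/5% CO2, then pinned with compounds in DMSO; nonlytic luminescence tracked viability during 40 h treatment.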
# [5] = qHTS RealTime-Glo MT Cell Viability Assay in HepG2 cells - 0 hour (AID 1224889); note: nearly all actives have a fitted effect of over 50% in size; note: potency is the fitted concentration of half-maximal effect
# Outline: (§1)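 qHTS, HepG2, 600 cells/well, RealTime-Glo (NanoLuc + prosubstrate) added with cells; 5 h preincubation; DMSO compound addition; 37 C; luminescence at 0/8/16/24/32/40 h.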
# [6] = target: Estrogen receptor (Homo sapiens) (UniProt P03372); assay: qHTS assay to identify small molecule agonists of the estrogen receptor alpha (ER-alpha) signaling pathway (AID 743075; calls by dose curve;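 note: HEK293 GripTite cells with ER-alpha and UAS-driven beta-lactamase reporter; potency is the fitted concentration of half-maximal effect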); conditions: HEK293 ER-alpha-UAS-bla, beta-lactamase FRET ratio, 18 h; activation: at 70.1 µM (top of the series) unless noted
# [7] = target: Bile acid receptor (Homo sapiens) (UniProt Q96RI1); assay: qHTS assay to identify small molecule antagonists of the farnesoid-X-receptor (FXR) signaling pathway (AID 743217; active = well fitted inhibition curve with a large enough effect in the signal ratio in the repeat runs, not every such curve was filed as active; inconclusive = weak or mixed curves, or effect the other way; inactive = no such curve, though single readings can be large or run the other way; the % refers to the signal ratio; note: potency is the fitted concentration of half-maximal effect; for activity change, negative = inhibition: % is set by controls: 0 for no effect and ±100 for the full control effect); conditions: HEK293T FXR-UAS-bla, beta-lactamase ratio, CDCA-stimulated, 16 h; activity change, negative = inhibition: at 62.6 µM (top of the series) unless noted
# Sequence of UniProt Q96RI1 (Q96RI1 whole entry, looked up): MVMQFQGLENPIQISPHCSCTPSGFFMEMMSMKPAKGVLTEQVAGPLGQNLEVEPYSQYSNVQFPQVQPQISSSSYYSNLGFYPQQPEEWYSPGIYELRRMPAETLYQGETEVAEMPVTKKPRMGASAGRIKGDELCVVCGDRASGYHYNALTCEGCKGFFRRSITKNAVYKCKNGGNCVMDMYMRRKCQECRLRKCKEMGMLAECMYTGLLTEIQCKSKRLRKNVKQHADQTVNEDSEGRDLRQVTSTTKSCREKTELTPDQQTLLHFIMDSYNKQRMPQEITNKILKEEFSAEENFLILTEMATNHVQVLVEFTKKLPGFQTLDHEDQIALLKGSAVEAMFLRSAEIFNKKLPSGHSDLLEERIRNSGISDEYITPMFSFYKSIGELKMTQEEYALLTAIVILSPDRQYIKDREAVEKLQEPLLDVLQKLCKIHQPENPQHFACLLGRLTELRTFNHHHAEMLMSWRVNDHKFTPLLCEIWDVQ
# Outline: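 FXR-UAS-bla HEK 293T cells (beta-lactamase reporter) given compound plus chenodeoxycholic acid (50 uM final), 16 h at 37C. LiveBLAzer B/G FRET substrate added for 2 h at room temperature; fluorescence read.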
# Aromatase (Homo sapiens) = Aromatase (Homo sapiens) (UniProt P11511); assay: qHTS assay to identify aromatase inhibitors (AID 743083); note: potency is the fitted concentration of half-maximal effect; nearly all actives have a fitted effect of over 55% in size
# Sequence of UniProt P11511 (P11511 whole entry, looked up): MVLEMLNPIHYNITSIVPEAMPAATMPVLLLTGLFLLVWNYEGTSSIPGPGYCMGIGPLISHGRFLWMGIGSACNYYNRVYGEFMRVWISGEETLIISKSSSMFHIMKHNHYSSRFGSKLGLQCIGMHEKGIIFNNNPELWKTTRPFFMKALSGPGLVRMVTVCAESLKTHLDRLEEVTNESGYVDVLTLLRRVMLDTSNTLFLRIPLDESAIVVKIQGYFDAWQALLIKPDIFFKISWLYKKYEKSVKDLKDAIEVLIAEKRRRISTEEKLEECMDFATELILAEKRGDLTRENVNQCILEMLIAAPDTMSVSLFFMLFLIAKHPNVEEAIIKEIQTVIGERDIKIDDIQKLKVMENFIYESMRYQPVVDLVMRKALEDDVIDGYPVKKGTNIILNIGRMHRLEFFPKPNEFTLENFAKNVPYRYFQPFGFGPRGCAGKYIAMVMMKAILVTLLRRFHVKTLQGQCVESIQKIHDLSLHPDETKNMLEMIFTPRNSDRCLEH
# [8] = A CellTox Green Cytotoxicity Assay to monitor cytotoxicity in HEK293 cells - 24 hour (AID 1224875); note: potency is the fitted concentration of half-maximal effect; nearly all actives have a fitted effect of over 45% in size
# Outline: (§2)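 HEK293 cells, 600/well, were preincubated 5 hours and then exposed to compounds at 37 C for up to 40 hours. A cell-impermeant cyanine dye staining dead-cell DNA was read by fluorescence at 0, 8, 16, 24, 32 and 40 h time points.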
# [9] = qHTS assay to identify small molecule antagonists of the estrogen receptor alpha (ER-alpha) signaling pathway using the BG1 cell line - cell viability counter screen (AID 743081); conditions: BG1Luc4E2 viability, CellTiter-Fluor, 22 h; activity change, negative = cytotoxicity: at 70.3 µM (top of the series);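 note: compound given together with 17beta-estradiol as the ER stimulus; potency is the fitted concentration of half-maximal effect; nearly all actives have a fitted effect of over 45% in size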
# [10] = qHTS assay for small molecule activators of the heat shock response signaling pathway (AID 743210; active = well fitted activation curve with a large enough effect in the signal ratio in the repeat runs, with a control signal flat, not every such curve was filed as active; inconclusive = weak or mixed curves; the % refers to the signal ratio;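 note: HeLa cells with beta-lactamase reporter driven by heat shock elements; % is set by controls: 0 for no effect and ±100 for the full control effect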); conditions: HeLa HSE-bla reporter, beta-lactamase ratio, 5 h; activation: at 62.6 µM (top of the series) unless noted
# Outline: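 Reporter gene assay: HeLa cells stably bearing an HSE-bla construct, compound treatment 5 h at 37 C, LiveBLAzer substrate 2.5 h at RT, fluorescence intensity.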
# [11] = target: Acetylcholinesterase (Homo sapiens) (UniProt P22303); assay: Acetylcholinesterase (AChE) small molecule antagonists: enzyme-based qHTS assay (AID 1347397; calls by dose curve; note: potency is the fitted concentration of half-maximal effect; nearly all actives have a fitted effect of over 55% in size); conditions: Potency: AChE enzyme activity inhibition; outcome: AChE enzyme activity inhibition
# Sequence of UniProt P22303 (P22303 whole entry, looked up): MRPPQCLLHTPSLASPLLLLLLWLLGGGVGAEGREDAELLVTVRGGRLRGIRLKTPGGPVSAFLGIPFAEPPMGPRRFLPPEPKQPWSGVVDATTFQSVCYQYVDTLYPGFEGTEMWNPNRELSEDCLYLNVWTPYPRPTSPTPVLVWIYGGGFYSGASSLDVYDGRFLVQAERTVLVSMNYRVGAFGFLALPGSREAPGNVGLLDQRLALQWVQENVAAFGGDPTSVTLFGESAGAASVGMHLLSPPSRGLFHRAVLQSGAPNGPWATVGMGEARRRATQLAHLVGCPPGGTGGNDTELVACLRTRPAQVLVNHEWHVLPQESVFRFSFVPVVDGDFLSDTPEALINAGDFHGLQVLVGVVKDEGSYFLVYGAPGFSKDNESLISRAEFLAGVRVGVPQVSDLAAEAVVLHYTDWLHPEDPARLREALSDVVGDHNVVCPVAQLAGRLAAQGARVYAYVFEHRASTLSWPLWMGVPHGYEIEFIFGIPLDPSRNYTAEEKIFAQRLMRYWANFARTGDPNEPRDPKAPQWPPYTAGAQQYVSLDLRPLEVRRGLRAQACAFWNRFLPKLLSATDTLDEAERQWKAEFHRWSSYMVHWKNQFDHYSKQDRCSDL
# Outline: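 Human recombinant acetylcholinesterase; substrate acetylthiocholine; thiocholine quantified with DTNB (colorimetric). Compound preincubation 30 min RT; reaction 10 min RT.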
# [12] = qHTS RealTime-Glo MT Cell Viability Assay in HepG2 cells - 32 hour (AID 1224877); note: nearly all actives have a fitted effect of over 55% in size; note: potency is the fitted concentration of half-maximal effect
# Outline: as §1
# [13] = target: Progesterone receptor (Homo sapiens) (UniProt P06401); assay: qHTS assay to identify small molecule agonists of the progesterone receptor (PR) signaling pathway (AID 1346784; calls by dose curve; note: nearly all actives have a fitted effect of over 30% in size; note: potency is the fitted concentration of half-maximal effect); conditions: PR-UAS-bla HEK293T, beta-lactamase FRET ratio, 16 h; activation: at 92.4 µM (top of the series) unless noted
# Sequence of UniProt P06401 (P06401 whole entry, looked up): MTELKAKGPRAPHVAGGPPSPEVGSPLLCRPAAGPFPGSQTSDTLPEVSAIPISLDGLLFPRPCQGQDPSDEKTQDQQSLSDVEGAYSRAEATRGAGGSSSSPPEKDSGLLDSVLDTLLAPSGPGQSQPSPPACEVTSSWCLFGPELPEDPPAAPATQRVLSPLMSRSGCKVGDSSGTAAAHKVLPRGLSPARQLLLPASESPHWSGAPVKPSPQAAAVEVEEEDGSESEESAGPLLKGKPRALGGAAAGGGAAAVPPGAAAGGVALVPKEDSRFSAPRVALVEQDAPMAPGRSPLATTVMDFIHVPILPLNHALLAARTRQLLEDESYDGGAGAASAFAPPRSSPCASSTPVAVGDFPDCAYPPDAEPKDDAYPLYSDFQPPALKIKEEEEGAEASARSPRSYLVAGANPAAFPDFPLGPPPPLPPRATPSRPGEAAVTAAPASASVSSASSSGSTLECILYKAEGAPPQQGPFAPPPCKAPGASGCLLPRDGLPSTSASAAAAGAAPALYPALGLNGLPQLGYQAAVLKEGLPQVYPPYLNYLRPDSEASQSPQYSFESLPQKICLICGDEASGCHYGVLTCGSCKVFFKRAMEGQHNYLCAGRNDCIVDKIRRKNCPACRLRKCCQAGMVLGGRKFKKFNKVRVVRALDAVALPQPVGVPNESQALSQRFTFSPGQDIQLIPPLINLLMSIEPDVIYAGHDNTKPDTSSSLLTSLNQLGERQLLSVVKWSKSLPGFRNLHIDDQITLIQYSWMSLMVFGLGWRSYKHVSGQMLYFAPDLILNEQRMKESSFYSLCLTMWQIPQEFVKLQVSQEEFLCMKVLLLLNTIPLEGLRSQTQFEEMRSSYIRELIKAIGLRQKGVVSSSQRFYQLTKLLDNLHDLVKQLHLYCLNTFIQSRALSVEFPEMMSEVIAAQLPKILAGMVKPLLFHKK
# Outline: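 Using charcoal-stripped serum (2%) to limit endogenous steroids, PR-UAS-bla HEK 293T cells received compounds for 16 hr at 37C after 6 hr plating; beta-lactamase FRET fluorescence was recorded following 2 hr substrate loading at room temperature.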
# [14] = qHTS assay to identify small molecule antagonists of the androgen receptor (AR) signaling pathway using the MDA cell line - cell viability counter screen (AID 743041; note: nearly all actives have a fitted effect of over 45% in size; note: potency is the fitted concentration of half-maximal effect); conditions: MDA-kb2 viability, CellTiter-Fluor, 16 h, cells co-treated with R1881 androgen agonist; viability change, negative = cytotoxic: at 70.3 µM (top of the series)
# Outline: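 Viability counter screen run alongside the AR antagonist reporter: cells seeded 5 h before compound, R1881 added, 16 h incubation at 37C without CO2, fluorescent CellTiter-Fluor signal quantified.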
# [15] = qHTS assay to identify small molecule that activate the aryl hydrocarbon receptor (AhR) signaling pathway - cell viability counter screen (AID 743086); note: nearly all actives have a fitted effect of over 45% in size; note: potency is the fitted concentration of half-maximal effect
# Outline: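 HepG2-AhR-luc (HG2L7.5c1) cells, 4000/well, were preincubated 5 h at 37C, exposed to compound in qHTS format for 24 hr at 37C, then given CellTiter-Fluor for 30 min; viability was read as fluorescence in the reporter wells.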
# [16] = qHTS RealTime-Glo MT Cell Viability Assay in HEK293 cells - 0 hour (AID 1224880); note: nearly all actives have a fitted effect of over 45% in size; note: potency is the fitted concentration of half-maximal effect
# Outline: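 600 cells/well were plated with the nonlytic NanoLuc/prosubstrate reagent, pre-incubated 5 h, then given 23 nL of compound in DMSO. Incubation at 37 C for 40 h, with luminescence from viable-cell-reduced substrate read repeatedly from 0 h.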
# [17] = qHTS assay to identify small molecule agonists of the hypoxia (HIF-1) signaling pathway (AID 1224846; active = well fitted activation curve with a large enough effect in the signal ratio in the repeat runs, not every such curve was filed as active; inconclusive = weak or mixed curves; the % refers to the signal ratio; note: potency is the fitted concentration of half-maximal effect); conditions: HRE-bla ME-180 cells, beta-lactamase ratio, 17 h; activation: at 76.8 µM (top of the series) unless noted
# Outline: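 HRE-bla ME-180 beta-lactamase reporter cells in medium with 0.5% dialyzed FBS, pre-incubated 5 h then exposed to compounds 17 h at 37C, 5% CO2; reporter induction read with CCF4-AM FRET substrate.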
# [18] = target: Bile acid receptor (Homo sapiens) (UniProt Q96RI1); assay: qHTS assay to identify small molecule agonists of the farnesoid-X-receptor (FXR) signaling pathway (AID 743220; active = well fitted activation curve with a large enough effect in the signal ratio in the repeat runs, not every such curve was filed as active; inconclusive = weak or mixed curves, or effect the other way; the % refers to the signal ratio; note: % is set by controls: 0 for no effect and ±100 for the full control effect); conditions: HEK293T FXR-UAS-bla, beta-lactamase FRET ratio, 16 h; activation: at 62.6 µM (top of the series)
# Outline: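 Beta-lactamase reporter under UAS control in GeneBLAzer FXR HEK 293T cells (5000/well) measured with LiveBLAzer FRET substrate after 2 h at room temperature. Compound exposure lasted 16 h at 37C.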
# [19] = A CellTox Green Cytotoxicity Assay to monitor cytotoxicity in HEK293 cells - 16 hour (AID 1224888); note: nearly all actives have a fitted effect of over 35% in size; note: potency is the fitted concentration of half-maximal effect
# Outline: as §2
# Tags give direction and shape of the fitted curve or compound fluorescence and quenching.
smiles,measurement,setting,value
C[C@]12CC[C@H](O)C[C@H]1CC[C@@H]1[C@@H]2C[C@@H](O)[C@]2(C)[C@@H](C3=CC(=O)OC3)CC[C@]12O,Potency,[1],"inconclusive: 0.436 µM [rising, full curve]"
NC(=O)c1ccc(N)nc1,Potency,[2],"inconclusive: 24.3 µM [cytotoxic, partial curve]"
same,Potency,[3],"inconclusive: 68.6 µM [inhibitor, single point]"
same,"activity, negative = inhibition",[1],inconclusive: -29.4%
CCOP(=S)(OCC)SCCS(=O)(=O)CC,Potency,[4],inactive
same,Potency,[5],"inconclusive: 49 µM [cytotoxic, partial curve]"
C[N+]1(CCF)[C@@H]2CC[C@H]1CC(OC(=O)C(O)(c1ccccc1)c1ccccc1)C2 (stereo partly drawn),Potency,[6],"inconclusive: 23.9 µM [falling, partial curve]"
same,Potency,[7],inactive
CC[N+]1(CC)CCC(OC(=O)C(O)(c2ccccc2)c2ccccc2)C1 (stereo not drawn),Potency,[7],inactive
same,"activity, negative = inhibition",[1],inconclusive: -0.139% [at 35.3 µM]
CC1(C(=O)Nc2ccc(O)c(Cl)c2Cl)CCCCC1,Potency,Aromatase (Homo sapiens),"inconclusive: 68.6 µM [inhibitor, single point]"
same,Potency,[8],"inconclusive: 54.9 µM [activator, single point]"
C[C@H]1[C@@H]2Cc3ccc(O)cc3[C@@]1(C)CCN2C,Potency,[9],"inconclusive: 146 µM [cytotoxic, partial curve]"
same,Potency,[10],inactive
same,Potency,[11],active: 33.9 µM
c1cc[c]([Sb]([c]2ccccc2)[c]2ccccc2)cc1,Potency,[12],inactive
same,Potency,[13],"inconclusive: 68.6 µM [cytotoxic, single point]"
ClCc1cccc(Cl)c1,Potency,[10],inactive
same,Potency,[3],inactive
OC(Cc1ccccc1Cl)(Cn1cncn1)C1(Cl)CC1 (stereo not drawn),Potency,[5],active: 24.5 µM
same,Potency,[3],"inconclusive: 77 µM [inhibitor, single point]"
CC[n+]1c(-c2ccccc2)c2cc(N)ccc2c2ccc(N)cc21,Potency,[14],active: 13.3 µM and active: 26.6 µM and active: 30.5 µM
same,Potency,[9],"inconclusive: 26.6 µM [cytotoxic, partial curve] and inconclusive: 23.7 µM [cytotoxic] and active: 54.2 µM"
same,Potency,[15],"inconclusive: 13.3 µM [falling, partial curve, poor fit]"
same,Potency,[7],active: 7.73 µM and active: 5.31 µM
same,Potency,[12],"inconclusive: 34.5 µM [cytotoxic, partial curve] and inconclusive: 26.8 µM [cytotoxic, single point]"
same,activation,[13],inconclusive: 14.6% [at 42.5 µM]
same,Potency,[11],"inconclusive: 30.9 µM [falling, partial curve]"
CCOP(=S)(OCC)SCS(=O)(=O)CC,Potency,[16],"inconclusive: 49 µM [rising, single point]"
same,"activity, negative = inhibition",[1],inconclusive: -15.8%
same,Potency,[11],active: 7.1 µM
Cc1ccc2nc3sc(=O)sc3nc2c1,Potency,[17],"inconclusive: 9.28 µM [falling, partial curve]"
CNC(=O)Oc1ccccc1OC(C)C,Potency,[15],"inconclusive: 12.2 µM [rising, partial curve, poor fit]"
CC1=NNC(=O)N(/N=C/c2cccnc2)C1,"activity, negative = inhibition",[1],inconclusive: 8.89%
CCN(CC)C(C)C(=O)c1ccccc1 (stereo not drawn),Potency,[17],inactive
same,Potency,[5],inactive
CNC(=O)Oc1cc(C)c(N(C)C)c(C)c1,Potency,[7],inactive
same,activation,[18],inconclusive: 7.91%
same,Potency,[16],inactive
CC(C1CC1)C(O)(Cn1cncn1)c1ccc(Cl)cc1 (stereo not drawn),Potency,Aromatase (Homo sapiens),active: 24.2 µM
same,"activity, negative = inhibition",[1],inconclusive: -12.1%
O=C1C=CC(=O)c2ccccc21,Potency,[2],active: 15.4 µM
same,Potency,[17],inconclusive: 11 µM [full curve]
same,Potency,[8],active: 6.92 µM
same,Potency,[12],active: 24.5 µM
same,Potency,[16],active: 12.3 µM
same,Potency,[5],"inconclusive: 24.5 µM [cytotoxic, partial curve]"
same,Potency,[3],active: 10.9 µM
CNC(=O)CSP(=S)(OC)OC,Potency,[14],inactive
same,Potency,[19],"inconclusive: 12.6 µM [activator, single point]"
OCC(Br)CBr (stereo not drawn),Potency,[14],"inconclusive: 87.5 µM [rising, partial curve, poor fit]"
same,Potency,[15],inactive
same,Potency,[12],inactive
same,Potency,[19],inactive
same,Potency,[3],inactive
O=C1CCCN1,Potency,[14],inactive
same,Potency,[6],"inconclusive: 49 µM [activator, partial curve]"
same,Potency,[10],inactive
same,Potency,[2],inactive
O=S(=O)(NS(=O)(=O)C(F)(F)F)C(F)(F)F,Potency,[15],"inconclusive: 60.9 µM [rising, partial curve, poor fit]"
CC(=O)[C@H]1CC[C@H]2[C@@H]3CC[C@H]4C[C@H](O)CC[C@]4(C)[C@H]3C(=O)C[C@]12C,Potency,[10],inactive
same,Potency,[4],inactive
same,"activity, negative = inhibition",[1],inconclusive: -0.847% [at 35.3 µM]
